Data reported in PubChem BioAssay AID1645882 (National Center for Advancing Translational Sciences (NCATS), 2021).
About 120 (0.75%) of roughly 16,000 compounds were called active. Another 4% or so got no clear call; they are omitted. The call rests on the fitted dose curve; in most records, active means well fitted inhibition curve with a large enough effect; inconclusive means small, poorly fitted or top-dose-only effect; inactive means no such curve, though single readings can be large or run the other way. Some of the results follow.

Target: Rap guanine nucleotide exchange factor 3 (Homo sapiens) (UniProt O95398)
Experiment: Validation qHTS for antagonist of cAMP-regulated guanine nucleotide exchange factor 3 (EPAC1);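 further: plate controls were DMSO for no effect and ATA control for full effect; nearly all actives have a fitted effect of over 75% in size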
Details: EPAC1 Rap1B-BODIPY-GDP exchange, fluorescence; series mostly up to 150 µM; activity change, negative = inhibition: at the top concentration
Outline: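 EPAC1 (100 nM) mixed with 250 nM RAP1B-BODIPY-GDP and 50 uM GDP; compounds in concentration series, 5 min at room temperature. Fluorescence (ex 480/em 540 nm) read every 5 min for 30 min; normalized to ATA control and DMSO.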

Chain of UniProt O95398 (O95398 whole entry, looked up): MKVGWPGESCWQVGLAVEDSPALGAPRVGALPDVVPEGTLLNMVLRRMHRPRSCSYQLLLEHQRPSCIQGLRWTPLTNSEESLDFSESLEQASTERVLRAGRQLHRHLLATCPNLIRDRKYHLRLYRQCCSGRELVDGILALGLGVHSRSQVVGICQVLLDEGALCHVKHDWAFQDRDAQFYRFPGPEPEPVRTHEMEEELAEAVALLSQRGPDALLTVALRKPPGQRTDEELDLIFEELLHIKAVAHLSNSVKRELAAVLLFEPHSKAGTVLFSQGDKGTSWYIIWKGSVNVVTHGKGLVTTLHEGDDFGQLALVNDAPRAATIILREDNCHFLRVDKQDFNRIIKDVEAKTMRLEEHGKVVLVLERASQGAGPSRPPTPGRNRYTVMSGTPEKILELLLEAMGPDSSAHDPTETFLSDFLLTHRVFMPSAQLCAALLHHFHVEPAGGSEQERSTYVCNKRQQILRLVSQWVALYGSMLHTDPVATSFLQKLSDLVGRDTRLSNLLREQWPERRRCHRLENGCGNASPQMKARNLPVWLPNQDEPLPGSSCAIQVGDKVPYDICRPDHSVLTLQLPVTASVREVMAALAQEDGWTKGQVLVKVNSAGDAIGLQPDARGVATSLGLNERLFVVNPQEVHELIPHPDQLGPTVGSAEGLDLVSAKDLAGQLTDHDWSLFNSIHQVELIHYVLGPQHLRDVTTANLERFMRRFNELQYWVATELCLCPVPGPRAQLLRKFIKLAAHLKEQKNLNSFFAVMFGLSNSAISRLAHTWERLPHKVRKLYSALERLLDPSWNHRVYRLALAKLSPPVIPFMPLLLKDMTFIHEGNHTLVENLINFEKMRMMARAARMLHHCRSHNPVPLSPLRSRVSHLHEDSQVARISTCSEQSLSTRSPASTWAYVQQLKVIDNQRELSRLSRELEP

Activity change, negative = inhibition, inactive:
Brc1ccc([C@H]2CN3CCSC3=N2)cc1 -6.9% [at 75.8 µM]
O=S(=O)(c1ccccc1)N1CCC2(CCN(Cc3ccccc3)CC2)CC1 18.9%
Cc1ccc(S[C@@H](CCN2CC[C@H](C)CCC2=O)c2ccccc2)cc1 -12.4%
COc1ccc(NC(=O)N2CC[C@@]3(CCCNC3)C2)cc1 26.1%
O=C(/C=C/c1ccc(OCc2ccccc2)cc1)c1cccs1 9.11%
COc1ccc(C(=O)NCCN2Cc3cc(C)ccc3OC(C)C2)c(OC)n1 (centres undefined) 6.47%
CC1NC(C(=O)O)Cc2c1[nH]c1ccccc21 (centres undefined) 2.03%
CC(C)CC(NP(=O)(O)O[C@@H]1O[C@@H](C)[C@H](O)[C@@H](O)[C@H]1O)C(=O)NC(Cc1c[nH]c2ccccc12)C(=O)O (some centres undefined) 8.85% [at 75.8 µM]
Cc1cccc(CNc2ncncc2-c2ccccc2C)c1 2.69%
CC(C)C(NS(C)(=O)=O)c1nnc2n1CCN(Cc1ccnc3ccccc13)CC2 (centres undefined) 10.9%
CCCCCCCCCCCCCCCC(=O)OC(CC(=O)O)C[N+](C)(C)C (centres undefined)
CCCCCCCCCCCCCCCC(=O)NCCO
COc1cc([C@@H]2c3cc4c(cc3C(O[C@@H]3O[C@@H]5COC(c6cccs6)O[C@H]5[C@H](O)[C@H]3O)C3COC(=O)[C@@H]32)OCO4)cc(OC)c1O (some centres undefined) -8.58%
Cc1cc(C(=O)Nc2ccccc2-c2nc(CNC(=O)c3ccc(F)cc3F)c(C)o2)c(C)o1 7.32%
CN(C)C(=O)c1ccc(-c2ccc3ncnc(Nc4ccccc4)c3c2)cc1 -0.569%
CCn1c(-c2ccccc2F)nc2cc(NC(C)=O)cc(C(=O)N(C)Cc3cn(C)nc3C)c21 -1.07%
O=C1CC(c2ccc(O[C@@H]3OC(CO)[C@@H](O)C(O)C3O)cc2)Oc2cc(O)ccc21 (some centres undefined) 4.19%
CN1CCN(C2=Nc3cc(Cl)ccc3Nc3ccccc32)CC1
CC(C)(S)[C@@H](N)C(=O)O 20.4%
C=C1CC[C@@H]2O[C@@]2(C)CC[C@H]2[C@H]1CC2(C)C -11.4%
CC1=CC(=O)C2=C(C)C[C@H](OC(=O)Cc3ccccc3)C3[C@H](OC(=O)[C@H]3C)C12 (some centres undefined) 5.33%
CN(Cc1cccc2ncccc12)C(=O)c1cnn(-c2nccc(-c3ccccc3F)n2)c1C1CC1 -13%
COc1ccc(Oc2ncc3nc(-c4ccc(F)cc4)c(=O)n(C[C@H]4CCCO4)c3n2)cc1 -3.14%
COc1ccccc1-c1cc(NCc2cccnc2)ncn1 19.2%
Cc1cccc(C(=O)O[C@H]2[C@H](Cc3ccccc3)NS(=O)(=O)[C@H]3CC4C=C[C@]23O4)c1 6.2%
Cc1cc(C(=O)NNCc2ccccc2)no1 0.128% [at 75.8 µM]
COc1ccc2c(c1)CC[C@@H]1[C@@H]2CC[C@]2(C)[C@@H](NCCCCCCN3C(=O)C=CC3=O)CC[C@@H]12 4.59% [at 201 µM]
Cc1ccccc1-c1cc(Nc2ccccc2)ncn1 -4.33%
CC(C)c1c(C(=O)NCC2(N3CCOCC3)CCCC2)cnn1-c1nccc(-c2cccs2)n1 4.46%
COc1ccc(OC)c(/C=C/c2cc3ccccc3cn2)c1 3.32%
COC(=O)c1cccc(C(=O)NCc2nc(-c3ccccc3NC(C)=O)oc2C)c1 6.06%
COc1ccc(-c2ccc(=N)n(CCCC(=O)O)n2)cc1
Cn1ccc(C(=O)NCC2CCC3(CCN(Cc4cc(F)cc(F)c4)CC3)O2)n1 (centres undefined) 7.03%
CN(C)c1ncc2nc(-c3ccccc3)c(=O)n(Cc3cccs3)c2n1 20.9%
Cc1ccc(C(=O)NCCc2nnc3n2CCN(Cc2ccnc4ccccc24)CC3)c(C)c1 17.4%
O=C(C[C@H]1C(=O)N(c2ccc(F)c(F)c2)C[C@@H]1Cc1ccccc1)Nc1ccccc1 -0.362%
CC1(C)S[C@@H]2[C@H](NC(=O)C(C(=O)Oc3ccc4c(c3)CCC4)c3ccccc3)C(=O)N2[C@H]1C(=O)O (some centres undefined) 15.1%
CSc1ccc(C(=O)c2[nH]c(=O)[nH]c2C)cc1
COc1ccccc1CNc1nc(-c2cccnc2)nc2ccccc12 -15.8%
S=C(Nc1ccccc1)Nc1nccs1 4.33% [at 75.8 µM]
Cc1c(C(=O)NCc2ccc3c(c2)OCO3)cnn1-c1ncc2c(n1)-c1ccccc1CC2 -4.33%
Cc1ccnc2c(Cl)c(Cl)ccc12 8.33%
CCCC[C@H]1COCCS(=O)(=O)N1Cc1ccccc1F -4.51%
COc1cc(C/C=C/c2ccccc2)c(OC)cc1O 7.69%
O=C1O[C@H](CO)[C@@H](O)[C@H](O)[C@H]1O 23.2%
COc1ccc2c(c1)-c1nc(-n3ncc(C(=O)NCc4cccc(C)n4)c3C3CC3)ncc1CC2 17.5%
COc1ccc(-c2nc3cnc(N(C)C)nc3n(C3CC3)c2=O)cc1 4.93%
COCCN1CCN(C(=O)c2sc3ncnc(NCC4CCCO4)c3c2C)CC1 (centres undefined) -4.02%
Oc1cn2c(n1)Nc1ccc(Cl)c(Cl)c1C2
Cc1cc(C)n(-c2cccc(C(=O)NCC3Cc4cccc(-c5ccccn5)c4O3)c2)n1 (centres undefined) -18.2%
Nc1nc2c(ncn2[C@@H]2O[C@H](COP(=O)(O)OP(=O)(O)O)[C@@H](O)[C@H]2O)c(=O)[nH]1 -0.587%
CN(C)C(=O)c1ccc(-c2nc(NCc3cccs3)c3ccccc3n2)cc1 17.3%
COc1ccc2c(c1OC)OCC(c1ccc(OC)c(OC)c1OC)C2 (centres undefined) 8.73%
O=C(CN1Cc2ccccc2OC(c2ccccc2F)C1)NC(c1ccccn1)C(F)(F)F (centres undefined) -16.7%
Cc1ccc2c(c1)CN(CCNC(=O)c1ccc3nc(C)[nH]c3c1)CC(C)O2 (centres undefined) 1.39%
CC(=O)Oc1c(-c2ccccc2)oc2c(CC=C(C)C)c3c(c(OC(C)=O)c2c1=O)C=CC(C)(C)O3 6.65%
Cc1cnc(CNc2ccnc(-c3ccccc3CN(C)C)n2)cn1 9.74%
CC(N)(C(=O)O)c1ccc(P(=O)(O)O)cc1 (centres undefined) -8.59%
NCC1CCC(C(=O)O)CC1 (centres undefined)
CC(C)(C)n1nc(-c2ccc(Cl)cc2)c2c(N)ncnc21 -3.11%
COC(=O)[C@@H](Cc1ccccc1)N(Cc1ccccc1)S(=O)(=O)N(Cc1ccccc1)[C@H](Cc1ccccc1)C(=O)OC 11.6%
OC[C@@H](O)C(O)[C@H](O)CO 10.2%
Cc1ccc(/C(=C\CN2CCCC2)c2cccc(/C=C/C(=O)O)n2)cc1 27.9%
Cn1c(O)c(N=NC(N)=S)c2ccccc21 14.4%
Cc1ccccc1-c1cccc(CN2CCc3nnc(C(C)NC(=O)c4cccnc4)n3CC2)c1 (centres undefined) 13.4%
Cc1ccccc1-c1cncnc1NCCN1CCOCC1 13.7%
COc1ccc(/C=N/NC(=O)c2ccncc2)c(C(=O)O)c1OC 12.8%
COc1ccc(/C=C/c2ccccn2)cc1 13%
Cc1ccccc1-c1nc(NCc2cccnc2)c2ccccc2n1 14.3%
O=C(c1cc(-c2ccccc2)on1)N1CCOc2ccc(CN3CCOCC3)cc2C1 13.4%
Cc1cccc([C@@H]2CN(C)CCc3c2cc(O)c(O)c3Cl)c1 7.96%
N#CCCn1c(=O)c(-c2cccs2)nc2cnc(Oc3cccc(Cl)c3)nc21 0.237%
CC(C)NC(=O)c1cn([C@H]2CC[C@@H](NC(=O)/C=C/c3cccs3)CC2)nn1 -4.66%
c1nc(NC2CCNCC2)c2cc(-c3ccc4c(c3)OCO4)ccc2n1 22.3%
O=C(Nc1ccc(Cl)c(C(F)(F)F)c1)[C@@H]1CC=C[C@@H]2CCN(Cc3ccc(Cl)c(Cl)c3)C(=O)[C@@H]21 -0.47%
COc1cc2ncc(-c3ccccc3)nc2cc1OC
Cc1cn2cc(CNC(=O)CN3Cc4ccccc4OC(c4ccccc4F)C3)nc2s1 (centres undefined) 0.356%
OCCN1CCN(Cc2ccc3c(c2)CN(Cc2cccc4ncccc24)CCO3)CC1 8.59%
COc1cccc(-c2ccc3ncnc(NCc4ccc(OC)cc4OC)c3c2)c1 -7.77%
COc1ccc(C(=O)NCC2Cc3cc(C)cc(-c4nc5ccccc5s4)c3O2)c(OC)c1OC (centres undefined) 8.31%
Cc1cnc(C)c(-c2cccc3c2OC(CNC(=O)C[C@@H]2C[C@@H](C)NC(=S)N2)C3)n1 (some centres undefined) 19.1%
COc1ccc(CCNCC(O)COc2cccc(C)c2)cc1OC (centres undefined) 22.6%
O=C(O)C1CCN(c2ncnc3ccc(-c4ccccc4C(F)(F)F)cc23)CC1 28.3%
COc1cccc(O)c1CN1CCC2(CC1)c1ccccc1[C@@H](NC(=O)c1ccsc1)[C@@H]2OC 6.54%
COC(=O)N1CCC2(CCCN(Cc3nccs3)C2)CC1 -7.1%
CN1CCCN=C1COC(=O)C(O)(c1ccccc1)C1CCCCC1 (centres undefined) 9.28%
CC(C)(Oc1ccc(Cl)cc1)C(=O)O
Cc1cnc(CNc2ncnc3ccc(-c4ccccc4C(F)(F)F)cc23)cn1 -1.31%
[O-][n+]1ccccc1SSc1cccc[n+]1[O-] 14.7%
Cc1nc2cnc(OCc3ccccc3)nc2n(CCc2ccccc2)c1=O -9.15%
CC(=O)N[C@@H](CCC(N)=O)C(=O)O 18%
COc1ccc(-c2c(O)c3c(OC)c4c(cc3oc2=O)OC(C)(C)C=C4)cc1 -3.79%
CCOC(=O)C[C@H]1c2cc(F)ccc2S(=O)(=O)N1C(C)(C)C -2.76%
Cc1ncc2c(c1CNC(=O)c1ccc3c(c1)OCO3)CCN(C(=O)C1Cc3ccccc3O1)C2 (centres undefined) 20.6%
CC(=O)NO 3.55%
CC(N)(Cc1ccc(O)c(O)c1)C(=O)O (centres undefined) 0.787% [at 75.8 µM]
Cc1ccccc1-c1cncnc1NC1CCNCC1 -5.07%
N[C@@H](Cn1ccc(=O)c(O)c1)C(=O)O 7.03% [at 75.8 µM]
O=C(Nc1ccc(Cl)c(C(F)(F)F)c1)[C@@H]1CC=C[C@@H]2CCN(C3CCCCC3)C(=O)[C@@H]21 5.32%
C/C=C/C=N/NC(=O)c1ccncc1 9.32%
COCC(=O)N1CCC2(CCCN(Cc3ccc(C#N)cc3)C2)CC1 22.4%
O=C(Cn1cccn1)N1CCOc2c(cc(-c3ncc(C(F)(F)F)cc3Cl)cc2OCC2CCCO2)C1 (centres undefined) 24.5%
COc1ccc(CNc2ncncc2-c2ccc(C(=O)N(C)C)cc2)c(OC)c1 -7.94%
COc1cc(O)c2c(=O)c(O)c(-c3ccc(O)c(O)c3)oc2c1 -14.1%
